{"source": "paper PMC12136788", "binders": {"B1": {"name": "62686696_62692431_165_CDS_ENSMUSG00000032245_ENSMUST00000034776|mouse|control|control (ssRNA)", "RNA": "GGGAGUUCUACAGUCCGACGAUCGUCAAGAUGGAAGGGGGCUGUGCGGUCUUUGUCCUCGGCCUUCACAGAGCCAUGCCUGGCCUGCACGAACGCGACACCGGGGCCGCCCGCCGCUCCGAGGAGCUGCCGCCUCCGCGUCGCCAACAGAGGAUUGAGCAUCA"}, "B2": {"name": "88224669_88224789_743_CDS_ENSMUSG00000050144_ENSMUST00000057935|mouse|control|control (ssRNA)", "RNA": "GGGAGUUCUACAGUCCGACGAUCGAUGCUCUGGGCCACAAGGGAGGCCGAGCCCCCGGCUACGAGUGAUUUGACUGUGUUACUCUGGCUGUAGUCUGCCACAAACUUCCGGGUGAGCUCGUAAGUGGUGACAUAGCACUGGCCCAACAGAGGAUUGAGCAUCA"}, "B3": {"name": "chr2:130852214:130852215:+_ENSMUSG00000027312_ENSMUST00000028781|mus_mus|FALSE|FALSE (ssRNA)", "RNA": "GGGAGUUCUACAGUCCGACGAUCCAGGUGGAUCUUUGUGAGUUCAGUCCAGCCUGAUCUACAUAGUGAGUUCCAGGCCAGCUAGGACUACACAGUGAGACCCUGUCUCCAAAAACCAAAACAAAACAAAACAAGGCCCCCAUCCAACAGAGGAUUGAGCAUCA"}, "B4": {"name": "chrX:130830105:130830106:+_ENSMUSG00000033578_ENSMUST00000037687|mus_mus|FALSE|FALSE (ssRNA)", "RNA": "GGGAGUUCUACAGUCCGACGAUCACUGUAGGCAUCCUUGCUGAGCCUGGGGGUCAACUUGAUGGUCCCCAUGAAAACAAAGAAGAGUCCCAGGGCCACUGAGAGGGCCAUGAUAGUUAUGGUUCGUGGGGAUGCCAUGGGGUCCAACAGAGGAUUGAGCAUCA"}, "B5": {"name": "chr4:41265268:41265269:+_ENSG00000154277_ENST00000284440|hu_mus|FALSE|FALSE (ssRNA)", "RNA": "GGGAGUUCUACAGUCCGACGAUCAAAGGGCAUUCGCCCAUCGAGCUCGUACAGAUGGCCGUCCACGUUGUUGAACAGAAUAAAAUGGAAAUUCACUUUGUCAUCUACCCGACACUGGCCCUCCUGGGCCACGGAGUCAUGGGCCAACAGAGGAUUGAGCAUCA"}, "B6": {"name": "chr1:21069516:21069517:-_ENSG00000127483_ENST00000312239|hu_mus|motif|central (ssRNA)", "RNA": "GGGAGUUCUACAGUCCGACGAUCUAAGUGCCACAAGGAAGAAUAAAUGAUAAGCAGAAACUGUAGUUCUCAAGUAAGAAGCGGGUACUAUUUUACACAACCUCACAACCCUAAACAAAUACAAACAAGAAGAGGGCUGGGUAGCAACAGAGGAUUGAGCAUCA"}, "B7": {"name": "23955877_23955997_4845_CDS_ENSMUSG00000039218_ENSMUST00000088621|mouse|control|control (ssRNA)", "RNA": "GGGAGUUCUACAGUCCGACGAUCCCGGCGUCGAGGUGGUGUGUGAGACUUUGUCUUUGGCUCUAUUGAGGACCUGGAACCUCUUCGAGCAGUUCUGGAUUUGGGGGCGUGUUCUGGAGAAGACUCAGAACUACUGCUUCCUUCCAACAGAGGAUUGAGCAUCA"}, "B8": {"name": "chr6:52962840:52962841:+_ENSG00000112146_ENST00000323557|hu_hu|motif|central (ssRNA)", "RNA": "GGGAGUUCUACAGUCCGACGAUCAUAAAUAUGCUUAAGCAACUUAAUUCCAACUUAAUUUCAAAACACCCCAGGAAUCAACGGUCCCUUUAAAUAAAAAAAAUAAUCAAUUUAUAUUCUUCUUAAAAGAACUCCAACAAUUUACAACAGAGGAUUGAGCAUCA"}, "B9": {"name": "182817210_182817330_105_3pUTR_ENSG00000078070_ENST00000265594|human|control|control (ssRNA)", "RNA": "GGGAGUUCUACAGUCCGACGAUCCGCAGAGGCCGCCGCCAUGUCCCUGGAGCCCGGCCACUCCGUGACUCCCCAGUACAGAGGCAGCUGCGUCCCACACGCCAAACCCGUUCCUCCACUACGAAGCCUCGUGACCCCCGCCGGCAACAGAGGAUUGAGCAUCA"}, "B10": {"name": "chr4:115894766:115894767:+_ENSMUSG00000028698_ENSMUST00000030464|mus_hu|mus_mus_mus_hu_True|18_48 (ssRNA)", "RNA": "GGGAGUUCUACAGUCCGACGAUCUUCCACACGGAAAUGUACUUCGGGUUUUCCAACGGCCAGUACCAGUCCGGCCAAACUACCCGAUGAGGACAAGCCCCCUCUCUCCUACAGAACUAAAGCACCCGCCCCCGAACUUUCAAGCAACAGAGGAUUGAGCAUCA"}, "B11": {"name": "chr2:4544944:4544945:-_ENSMUSG00000039449_ENSMUST00000035721|mus_mus|motif|central (ssRNA)", "RNA": "GGGAGUUCUACAGUCCGACGAUCCCUUGAUAUGCUGGUGUUCUGAACUUAGGCUGGUAUAACAGCCAUCUUUCGACCUUCGGUCUCCUAUCAAUUCAUCUGUCCAGAAAGAUGACAACCAUACUCUGCUUAGAAAGAAAAGCACAACAGAGGAUUGAGCAUCA"}, "B12": {"name": "chr5:128440902:128440903:+_ENSG00000066583_ENST00000173527|hu_mus|hu_hu_hu_mus_True|1_48 (ssRNA)", "RNA": "GGGAGUUCUACAGUCCGACGAUCUUGAACGGUGCUGCCAAGUCCUUUGGGGUAUUGUUCCGUUAUGAUAACUGGAAUCCCUAAGAUCCGGGCCCCUUGCAACAGUCUCUGUCCCACACUAAUGAUGUCCCCAAAGUACUUGAUCAACAGAGGAUUGAGCAUCA"}, "B13": {"name": "chr2:10930004:10930005:-_ENSG00000143870_ENST00000272227|hu_hu|motif|central (ssRNA)", "RNA": "GGGAGUUCUACAGUCCGACGAUCGUCAUAAUCCACAGGAGACUCGCCUUUCUGAAAUAUCUUGAUUGUAGGAAAUCCUCGGAUCCCGUAUCGGGAGGCCAGAACCUGAUUGACUGUAGCAUCCACAGCUGCCAGUUUCACUUUCAACAGAGGAUUGAGCAUCA"}, "B14": {"name": "chr16:45382771:45382772:-_ENSMUSG00000022661_ENSMUST00000163230|mus_mus|mus_mus_mus_hu_True|68_108 (ssRNA)", "RNA": "GGGAGUUCUACAGUCCGACGAUCCUGAGUGUUAUUGUAAGACAAAUGGACAGGGAGGGCAUGCUUCUGUAAAGAUGUGAGCUAUUGUCUAAGACUAACAAUAUUUAUCUAGCUAUAAAAAUAAGUUAAAUGAAUAAGUUAAGACAACAGAGGAUUGAGCAUCA"}, "B15": {"name": "chr4:109034340:109034341:+_ENSMUSG00000028552_ENSMUST00000102729|mus_mus|motif|central (ssRNA)", "RNA": "GGGAGUUCUACAGUCCGACGAUCUUCUUCUCUAGCUUUCAACAGUUCUUCCUCAUAACUGGAGAUCUGAGAUUCUUGACGGGUUAUUUCUGCUUUCAGGGAAGAAAUCAGCUGGGCCUCCUCAGCACACUUUUUCCUGACUUCCAACAGAGGAUUGAGCAUCA"}, "B16": {"name": "100727982_100729460_2297_CDS_ENSG00000136021_ENST00000360820|human|control|control (ssRNA)", "RNA": "GGGAGUUCUACAGUCCGACGAUCAAUAUUUGUAACUUUCAUCUCCUCAGAAACAUUCAUUUGAUUUCCUAUAUCCAAAGAUUUCUGCUGUUCUUGCAUUAUAUGAAGUUGCUCCAGUUUAGUCUUAUGUUCAGACUCCAAUCUCAACAGAGGAUUGAGCAUCA"}, "B17": {"name": "chr8:117878989:117878990:-_ENSG00000164754_ENST00000297338|hu_hu|hu_hu_hu_mus_True|18_28 (ssRNA)", "RNA": "GGGAGUUCUACAGUCCGACGAUCCCAGAGGCCCUCGUUUACUGAGGACAAAAUGUGCGUAGAACAUUUUUCUUAUUUGCUAUGAAAUAAGAAGAAACCUGGAUCUCCCGCUGGGAGUUGGGCGGGCGGGUGGCCCGGGGAGGGCAACAGAGGAUUGAGCAUCA"}, "B18": {"name": "chr3:148802587:148802588:-_ENSG00000071794_ENST00000310053|hu_mus|hu_hu_hu_mus_False|18_28 (ssRNA)", "RNA": "GGGAGUUCUACAGUCCGACGAUCUCCAACAACUUGUCCUCUCAUAGUUCCAAAUAAAACCAAAUCUUGCUCUUCAUCACUCGUUAGGAAGUCAUCUGGAGGAAUAACAUCUUGGAAUUCAAAACGUGGCAAGAAAGUUGAGUACAACAGAGGAUUGAGCAUCA"}, "B19": {"name": "chr2:73747330:73747331:-_ENSMUSG00000018770_ENSMUST00000018914|mus_hu|FALSE|FALSE (ssRNA)", "RNA": "GGGAGUUCUACAGUCCGACGAUCUCCAAUACCAGCACCAGAACCAGCCACUCCUACUGUUGCAGCACCUGCACCAAUAAAUUUGGCAGCAGUAUCAAUGUCUCUGCUGAUUGCACUGGUCUGAAACUCCCUUUGGAUUAGCUGCAACAGAGGAUUGAGCAUCA"}, "B20": {"name": "chr19:5156467:5156468:-_ENSMUSG00000024855_ENSMUST00000025786|mus_mus|FALSE|FALSE (ssRNA)", "RNA": "GGGAGUUCUACAGUCCGACGAUCUUUUAUUUCUGCCACUGGCACAGAGACAUCCUUCACAUUGCUGUGCAGGCCAAGUACUAAAGCGCCCUCAUUAGGGUGUUGCAUCACCUCUGCCAUGUUGAUGAGUCCCACAGCUAAGGUCAACAGAGGAUUGAGCAUCA"}, "B21": {"name": "chr9:135205225:135205226:-_ENSG00000107290_ENST00000224140|hu_mus|FALSE|FALSE (ssRNA)", "RNA": "GGGAGUUCUACAGUCCGACGAUCUGUAGAAGUUGAAUCCCCAAAAGUGCUAUAUUGGGGCAUUUUGAAUUUUAUGUUUCUAAUUAUUUGUUUCAAACACAUUUGUAACUCAUGGGUUUCUUGACCAGUCAAUUGCCAACCCAGCAACAGAGGAUUGAGCAUCA"}, "B22": {"name": "chr5:102612083:102612084:+_ENSG00000181751_ENST00000319933|hu_mus|FALSE|FALSE (ssRNA)", "RNA": "GGGAGUUCUACAGUCCGACGAUCUAGAUUGAGGUAGUCCAGAGAUUUGGAGUGAGCCCUCUUACCUUUAAGAAGACAUAGAGGCAAGGGCCCAUGGAGGGCCUUAUAAGGUUCAUAAGGUAAGGGUUUGGUGCACUUGUCUCCCAACAGAGGAUUGAGCAUCA"}}, "note": "The list shows a part of the results.", "data": [{"biological_target": "T1, UNK ZnF1-3 (human, UniProt Q9C0B0 31-174)", "T1 sequence": "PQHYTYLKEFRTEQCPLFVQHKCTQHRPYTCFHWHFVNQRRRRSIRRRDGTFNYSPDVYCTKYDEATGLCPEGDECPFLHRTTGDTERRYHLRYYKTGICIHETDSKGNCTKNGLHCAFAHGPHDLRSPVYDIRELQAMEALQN", "assay": "nsRBNS (natural sequence RNA bind-n-seq); RBNS binding buffer (assumed for nsRBNS): 25 mM Tris pH 7.5, 150 mM KCl, 3 mM MgCl2, 0.01% Triton X-100, 500 ug/ml BSA, 20 U/ml SUPERase-In, 4 C; UNK is unkempt and MSI1 is Musashi-1; names of the RNAs are library labels; protein concentration not given here; high values mean tight binding", "units": {"binding signal": "enrichment R"}, "values": [{"binder": "B1", "binding signal": 0.547}, {"binder": "B2", "binding signal": 0.841}, {"binder": "B3", "binding signal": 1.07}, {"binder": "B4", "binding signal": 0.709}, {"binder": "B5", "binding signal": 1.01}, {"binder": "B6", "binding signal": 1.5}, {"binder": "B7", "binding signal": 0.717}, {"binder": "B8", "binding signal": 0.895}, {"binder": "B9", "binding signal": 0.822}, {"binder": "B10", "binding signal": 0.938}, {"binder": "B11", "binding signal": 0.837}, {"binder": "B12", "binding signal": 0.589}, {"binder": "B13", "binding signal": 1.25}, {"binder": "B14", "binding signal": 1.5}, {"binder": "B15", "binding signal": 0.56}, {"binder": "B16", "binding signal": 0.476}, {"binder": "B17", "binding signal": 1.11}, {"binder": "B18", "binding signal": 1.55}, {"binder": "B19", "binding signal": 0.838}, {"binder": "B20", "binding signal": 0.866}, {"binder": "B21", "binding signal": 0.834}, {"binder": "B22", "binding signal": 0.593}]}]}
